# Data taken from PubChem BioAssay AID463173 (ICCB-Longwood Screening Facility, Harvard Medical School, 2010).
# Screen size: about 52,000 compounds; about 4,300 (8.3%) were called active. Cut-off read from the data, not from the text of the source: active = survival mostly below about 52% (no sharp cut-off); inactive = mostly above about 56%. Some of the results follow.
# System: DeltatarO mutant
# Assay: S. aureus survival, RN4220 and DeltatarO strains – OD600, teichoic acid synthesis inhibitors, primary screen (AID 463173)
# Settings: S. aureus RN4220 wild type/DeltatarO growth, OD600, 18 h, active compounds read low; concentration not given here unless noted
row,SMILES,survival
1,Cc1c(C(c2ccc(Cl)cc2Cl)c2c(O)c3ccccc3oc2=O)c(=O)n(-c2ccccc2)n1C (stereo unspecified),inactive: 55%
2,CCCCc1ccc(NC(=O)c2cccn(Cc3ccc(Cl)cc3)c2=O)cc1,inactive: 87%
3,Cc1ccc(OCC(=O)N2CCN(CCc3ccncc3)CC2)cc1C,inactive: 53%
4,Cc1ccccc1CN1C(=O)CN=C(c2ccccc2)c2cc(Cl)ccc21,inactive: 91%
5,COc1ccc(C(=O)Nc2ccc(Cl)cc2C(=O)c2ccccc2)c(OC)c1,active: 2%
6,COc1ccc(Br)cc1CN1CCN(C(=O)Cc2ccccc2)CC1,inactive: 73%
7,CCOc1cccc(C(O)CNC)c1 (stereo unspecified),inactive: 51%
8,CC1CCC(NCCc2ccc3c(c2)OCO3)CC1 (stereo unspecified),inactive: 101%
9,Cc1cc(-n2c(/C=C/c3ccc(Br)s3)nc3ccccc3c2=O)ccc1Br,inactive: 95%
10,O=C(Nc1ccon1)c1cccn(Cc2ccccc2)c1=O,inactive: 80%
11,Nc1ccc(NC2=NCCCS2)cc1,inactive: 99%
12,Cc1cccc(-n2c(/C=C/c3cn(C)c4ccccc34)nc3ccccc3c2=O)c1,active: 21%
13,Cn1c(=O)c2ncnnc2n(C)c1=O,inactive: 62%
14,Cc1ccc(-c2nc(CN3C(=O)CN=C(c4ccccc4)c4cc(Cl)ccc43)c(C)o2)cc1,inactive: 67%
15,Cc1cc(NC(=O)c2cccn(Cc3cccc(Cl)c3)c2=O)no1,inactive: 87%
16,O=C(COc1cccc(Cl)c1)N1CCN(CCc2ccncc2)CC1,active: 47%
17,Cc1ccc(Cn2cccc(C(=O)Nc3cc([N+](=O)[O-])ccc3C)c2=O)cc1,inactive: 82%
18,O=C(CCc1nc(C2=CCN(Cc3cccc(Cl)c3)CC2)no1)Nc1ccccc1F,inactive: 81%
19,CN1CCc2cc3c(c4c2C1Cc1ccccc1-4)OCO3 (stereo unspecified),active: 12%
20,O=c1c2ccccc2nc(/C=C\c2ccc(F)cc2)n1-c1ccccc1F,inactive: 94%
21,COc1ccc(OCC(=O)N2CCN(Cc3cc(=O)n4nc(-c5ccccc5C)sc4n3)CC2)cc1,inactive: 129%

row,SMILES,survival
1,CC(=O)NS(=O)(=O)c1ccc(NC(=O)c2cccn(Cc3ccc(Cl)cc3)c2=O)cc1,inactive: 79%
2,Cc1cc(C)cc(NC(=O)CN2C(=O)CN=C(c3ccccc3)c3cc(Cl)ccc32)c1,inactive: 87%
3,O=C(COc1ccc(Br)cc1)Nc1ccc(Cl)cc1C(=O)c1ccccc1,inactive: 83%
4,Cc1ccnc(NS(=O)(=O)c2ccc(N=Cc3c(O)n(C)c(=O)n(C)c3=O)cc2)n1,inactive: 93%
5,COc1ccc(C(C(=O)NC2CCCCC2)N(CCN2CCOCC2)C(=O)Cc2c[nH]c3ccccc23)cc1OC (stereo unspecified),inactive: 59%
6,Cc1ccc(OCC(=O)N2CCN(Cc3ccc(F)cc3)CC2)cc1,inactive: 156%
7,Cc1ccc(C(C)(C)C)c(OCC(=O)Nc2ccc(Cl)cc2C(=O)c2ccccc2)c1,inactive: 66%
8,c1cnc2c(c1)ncn2C1CCNCC1,inactive: 75%
9,COc1ccc(CCNC2CCCCC2)cc1OC,inactive: 91%
10,COc1cccc(-n2c(/C=C\c3ccc(Cl)cc3)nc3ccccc3c2=O)c1,active: 30%
11,Cc1cccc(OCC(=O)N2CCN(Cc3cc(=O)n4nc(-c5ccccc5Cl)sc4n3)CC2)c1,inactive: 69%
12,CCC(N)C(=O)c1ccc(Cl)cc1 (stereo unspecified),inactive: 79%
13,Cc1ccccc1-c1nn2c(=O)cc(CN3CCN(C(=O)COc4ccccc4Cl)CC3)nc2s1,inactive: 125%
14,CCC12CN3CN(C1)CC(CC)(C3)C2O (stereo unspecified),inactive: 94%
15,Cc1ccc(-n2c(/C=C\c3ccc(F)c(F)c3)nc3ccccc3c2=O)c(C)c1,inactive: 98%
16,Cc1ccc2c(=O)n(-c3cccc(Cl)c3)c(=O)[nH]c2c1,inactive: 66%
17,Cc1ccc2nc(NC(=O)c3cccn(Cc4ccccc4F)c3=O)sc2c1,inactive: 76%
18,COc1cccc(N=Cc2c(O)n(Cc3ccco3)c(=O)[nH]c2=O)c1,inactive: 93%
19,O=C1NC(=O)C(CCc2ccncc2)(c2ccccc2)C(=O)N1,inactive: 71%
20,CN1CCC(NCCO)CC1,inactive: 100%
21,C=CCN1C(=O)NC(=O)/C(=C/c2ccc(OCC(=O)O)c(OCC)c2)C1=O,inactive: 88%

row,SMILES,survival
1,CCN(CC)C(=O)c1ccc(NC(=O)COc2ccc(-c3nn(C)c(=O)c4ccccc34)cc2)cc1,inactive: 72%
2,COc1cc2[nH]c(=O)n(-c3ccc(C)cc3)c(=O)c2cc1OC,inactive: 94%
3,O=C(Nc1ccc(Br)cc1C(=O)c1ccccc1Cl)c1ccc(Br)cc1,inactive: 144%
4,CN1CCC2(CC1)CC(=O)c1ccccc1O2,inactive: 85%
5,Cc1ccccc1-c1nc(CN2C(=O)CN=C(c3ccccc3)c3ccccc32)c(C)o1,active: -1%
6,CCc1ccc(-n2nc(C)c3c2NC(=O)CSC3c2ccc(C(=O)OC)cc2)cc1 (stereo unspecified),inactive: 64%
7,COc1ccccc1-c1nn2c(=O)cc(CN3CCN(C(=O)COc4ccccc4Cl)CC3)nc2s1,inactive: 78%
8,CCC12CN3CC(CC)(CN(C1)C3c1c(C)[nH]c(=O)[nH]c1=O)C2=O (stereo unspecified),inactive: 86%
9,COc1cc(OC)cc(C(=O)Nc2ccc(Cl)cc2C(=O)c2ccccc2Cl)c1,inactive: 171%
10,O=C(O)c1cncc(O)c1,inactive: 94%
11,O=c1c2ccccc2nc(/C=C/c2cccc3ccccc23)n1-c1ccc(Cl)cc1,inactive: 78%
12,CCOc1ccc2nc(NC(=O)c3cccn(Cc4ccc(C)cc4)c3=O)sc2c1,inactive: 67%
13,Nc1c(C(=O)Nc2ccc(F)c(Cl)c2)sc2nc3c(cc12)N1CCC3CC1,inactive: 65%
14,O=C(Nc1ccccc1)N(Cc1ccc2c(c1)OCO2)C1CCN(Cc2ccccc2)CC1,inactive: 94%
15,O=C(Nc1ccon1)c1cccn(Cc2cccc([N+](=O)[O-])c2)c1=O,inactive: 102%
16,O=C(Nc1ccc2c(c1)OCO2)c1cccn(Cc2ccccc2)c1=O,inactive: 81%
17,COC(=O)c1ccccc1NC(=O)c1cccn(Cc2cccc(Cl)c2)c1=O,inactive: 73%
18,CN1CCC2(CC1)CC(NC=O)c1ccccc1O2 (stereo unspecified),inactive: 87%
19,CC12CN3CN(C1)CC(C)(C3)C2=O,inactive: 95%
